Among all 420,000 compounds or so, about 64,000 (15%) were called active. This list was built around the results that the source calls inconclusive (neither active nor inactive); the mix of calls is not that of the screen. Calls follow the shape of the dose curve; as a rule, active = well fitted inhibition curve with a large enough effect; inconclusive = small, poorly fitted or top-dose-only effect; inactive = flat fitted curve, though single readings scatter. No potency is given beside an inconclusive call; the fits are too rough.
assay: qHTS for Inhibitors of human tyrosyl-DNA phosphodiesterase 1 (TDP1): qHTS in cells in absence of CPT; conditions: DT40 Tdp1-/- hTDP1 cells, no CPT, ATP luminescence, 48 h; activity change, negative = growth inhibition: at 46.2 µM (top of the series) unless noted; also: nearly all actives have a fitted effect of over 55% in size
How it was run: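 Seeded 400 DT40-hTDP1 cells/well (vehicle DMSO, no 20 nM CPT); pinned compounds; ≥48 hr at 37 °C; CellTiter-Glo luminescence as viability measure.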
% is scaled to controls: 0 for no effect and ±100 for the full control effect; potency is read from the fitted curve at half-maximal effect; tags tell the direction and shape of the fitted curve.

SMILES | activity change, negative = growth inhibition | Potency
COc1ccc(C(=O)Nc2nncs2)c(OC)c1 | inactive: -3.64% | 
NNC(=O)c1oc2nc(-c3ccccc3)cc(-c3ccco3)c2c1N |  | inconclusive [inhibitor, single point]
c1cc2c3c(c1)CCC[N+]3(C1CCCCC1)CCC2 |  | inconclusive [inhibitor, partial curve]
CN(C)c1ccc(/C=N/NC(=O)c2ccc(NC(=O)c3ccccc3)cc2)cc1 |  | inconclusive [inhibitor, single point]
Cc1ccc(C)c(OCC(O)CN2CCC(Cc3ccccc3)CC2)c1 (configuration not stated) |  | inconclusive [inhibitor, single point]
O=C(CN1CCOCC1)Nc1cc(C(F)(F)F)ccc1Cl | inactive: -21.5% | 
O=C(Nc1ccc(CN2CCCCC2)cc1)c1sc2ccccc2c1Cl |  | active: 16.4 µM
Cc1ccc(S(=O)(=O)c2c(C)nn(-c3ccccc3)c2OC(=O)c2ccccc2F)cc1 |  | inconclusive [inhibitor, single point]
C(=NNc1nnn(Cc2ccccc2)n1)c1ccccc1 |  | inconclusive [inhibitor, full curve]
O=C(CSc1ncccn1)N/N=C/c1ccc(OC2CSC2)cc1 |  | inconclusive [inhibitor, single point]
Cn1c(SCc2ccc(C(C)(C)C)cc2)nnc1C1COc2ccccc2O1 (configuration not stated) |  | inconclusive [inhibitor, single point]
COc1ccc(-c2nc(NC(=O)CCNC(=O)c3ccco3)sc2C)cc1 |  | active: 18.4 µM
Cc1ccc(C(=O)Nc2nc3n(n2)C(c2ccccc2)C=C(c2ccccc2)N3)cc1 (configuration not stated) |  | inconclusive [inhibitor, single point]
O=C(O)c1ccc(/C=C2\CCCc3c2nc2ccccc2c3C(=O)O)cc1 | inactive: -8.69% | 
CCOCCSC1=C(C#N)C(c2cccs2)C(C(C)=O)=C(C)N1 (configuration not stated) | inconclusive: -33% [inhibitor] | 
CC1(C)CCCC2=C1CC1C(=O)N(c3ccccc3)C(=O)C1C2 (configuration not stated) |  | inconclusive [inhibitor, single point]
O=C(Nc1ccccc1N1CCOCC1)c1cc(=O)[nH]c2ccccc12 |  | active: 16.4 µM
Cc1ccc(S(=O)(=O)NC(C(=O)N2CCOCCOCCOCC2)C(C)C)cc1 (configuration not stated) | inactive: -12.1% | 
CC(O)CN1CCN(C(=O)CN2C(=O)NC(c3ccccc3)(c3ccccc3)C2=O)CC1 (configuration not stated) | inactive: -8.74% | 
O=C(Cn1nnc(-c2cccc(C(F)(F)F)c2)n1)NNS(=O)(=O)c1cccc(C(F)(F)F)c1 |  | inconclusive [inhibitor, single point]
COc1ccccc1-c1cc(NCc2cnc(C)cn2)ncn1 | inactive: 5.65% | 
Cc1ccc2oc3c(c(=O)c2c1)C(c1cccc(Cl)c1)N(CCCN1CCOCC1)C3=O (configuration not stated) |  | inconclusive [inhibitor, single point]
COCc1cc(Sc2ccc(Cl)cc2)nc(-c2ccccc2)n1 |  | inconclusive [inhibitor, single point]
CCc1ccc(N(C(=O)c2snc(C(N)=O)c2N)C(C(=O)NCC2CCCO2)c2cccs2)cc1 (configuration not stated) |  | active: 20.6 µM

SMILES | activity change, negative = growth inhibition | Potency
Cc1ccc(OCC(=O)Nc2nnc(S(=O)(=O)N3CCCCCC3)s2)cc1C |  | inconclusive [inhibitor, single point]
Cc1onc(-c2ccccc2)c1C(=O)Oc1cccnc1 | inactive: 1.5% | 
Oc1cccc(C2c3[nH]c4ccccc4c3CCN2Cc2ccc3c(c2)CCO3)c1 (configuration not stated) |  | active: 20.6 µM
Cc1ccccc1OCCNc1cc(N2CCCCC2)ccc1[N+](=O)[O-] |  | inconclusive [inhibitor, single point]
Cc1cc(/C=N/n2cnnc2)c(C)n1-c1ccc(OCc2ccc(Cl)cc2Cl)cc1 |  | active: 5.8 µM
O=C(CSc1nc(C(F)(F)F)cc(=O)[nH]1)Nc1cccc2ccccc12 | inactive: -28% | 
N#Cc1c(NC(=O)CSc2ncn(-c3ccccc3)n2)sc2c1CCCC2 |  | inconclusive [inhibitor, single point]
Cc1nc2cnc(Nc3ccccc3)nc2n(Cc2cccs2)c1=O |  | inconclusive [inhibitor, single point]
CC(=O)Nc1c(C(=O)NCc2ccccc2)nnn1Cc1ccccc1 | inactive: -7.89% | 
Cc1ccc(OCC(=O)Nc2ccc(CN3CCCCC3)cc2)c(C)c1 |  | inconclusive [inhibitor, single point]
CCC1c2ccc(C)n2CCN1C(=O)Nc1cc(Cl)ccc1OC (configuration not stated) |  | inconclusive [inhibitor, single point]
CSc1nc2nccc(-c3ccc(Cl)cc3)n2n1 | inactive: -12.4% | 
COc1cc(/C=C/C(=O)OCC(=O)c2ccccc2)cc(OC)c1OC |  | inconclusive [inhibitor, single point]
O=C(Nc1ccc(Cl)cc1Cl)[C@@H]1CC=C[C@@H]2CCN(Cc3ccccc3)C(=O)[C@@H]21 |  | inconclusive [inhibitor, partial curve, poor fit]
O=C(Cn1cnc2ccccc2c1=O)Nc1ccccc1N1CCOCC1 | inactive: 1.6% | 
Cc1ccc(CNC(=O)Cn2cnc3c(OCc4ccccc4)ncnc32)o1 |  | inconclusive [inhibitor, single point]
CCOC(=O)Cc1csc(NC(=S)NC(=O)c2cc(OC)cc(OC)c2)n1 |  | inconclusive [inhibitor, single point]
COC(=O)c1ccc(NC(=S)N2CCN(C(=O)c3ccco3)CC2)cc1 | inactive: -14.7% | 
NC(=O)OCC(COC(N)=O)c1ccccc1 |  | inconclusive [inhibitor, single point]
CC1CCc2onc(C(=O)N3CCN(c4cccc(C(F)(F)F)c4)CC3)c2C1 (configuration not stated) |  | inconclusive [inhibitor, single point]
CCCC(=O)N1CCN(c2nc3ccc(CC)cc3s2)CC1 |  | inconclusive [inhibitor, partial curve]
CCN(CC)C(=O)CSc1nc(O)c(Cc2ccccc2)c(=O)n1-c1ccccc1C |  | inconclusive [inhibitor, partial curve, poor fit]
CC(C)C[C@@H](CN1CCC[C@@H]1CN1C(=O)C(=O)NC[C@@H]1Cc1ccccc1)N1C[C@H](Cc2ccc(O)cc2)N(CC2CCCCC2)C(=O)C1=O |  | inconclusive [inhibitor, partial curve]
Cn1c(CCN2CCCCC2)nc2cc(NS(=O)(=O)c3ccc(Cl)cc3)ccc21 |  | inconclusive [inhibitor, single point]

SMILES | activity change, negative = growth inhibition | Potency
CC1(C(=O)Nc2cccc3cccnc23)CCN1Cc1csc2ccccc12 (configuration not stated) | inactive: -76.1% | 
CSc1ccc(CN(C)CC(=O)Nc2ccc(NC(C)=O)cc2)cc1 |  | inconclusive [inhibitor, single point]
CCC(C)[C@H](NC(=O)OC(C)(C)C)C(=O)NCC1CCC(C(=O)N[C@@H](Cc2ccccc2)C(=O)O)CC1 (some centres not stated) | inactive: 19.7% | 
COc1cc(/C=C2/SC(=Nc3ccc(O)cc3)NC2=O)ccc1O |  | active: 0.651 µM
Cc1cc2nc(CCN(Cc3cccnc3)C(=S)Nc3ccc(F)cc3)[nH]c2cc1C |  | inconclusive [inhibitor, single point]
CCOc1cc(CNCC2CCCO2)cc(Br)c1OCC(N)=O (configuration not stated) | inactive: -12.5% | 
COc1ccc(C(CC(=O)O)N2C(=O)CCC2=O)cc1 (configuration not stated) | inactive: -2.65% | 
COc1ccc(S(=O)(=O)N2CCN(C(=O)CCSc3ccccc3)CC2)cc1 |  | inconclusive [inhibitor, single point]
CN(CC(=O)Nc1ccc(F)cc1F)S(=O)(=O)c1ccc(C(=O)N2CCOCC2)s1 | inactive: -12.2% | 
CN(Cc1ccc(F)cc1)C(=O)CNC(=O)C1CCCCC1 | inactive: 16.4% | 
CC12CCC(O)CC1=CCC1C2CCC2(C)C(c3ccn[nH]3)CCC12 (configuration not stated) |  | inconclusive [inhibitor, partial curve]
Cn1c(N/N=C/c2c[nH]c3ccccc23)nc2ccccc21 |  | inconclusive [inhibitor, single point]
CC1CN(C(=O)N2c3ccccc3Sc3ccccc32)C(C)CC1=O (configuration not stated) |  | inconclusive [inhibitor, single point]
CCOC(=O)C1(Cc2ccccc2)CCN(Cc2cccn2-c2nccs2)CC1 |  | inconclusive [inhibitor, single point]
CCC(=O)N1CCc2cc(Br)cc(S(=O)(=O)CCC(=O)NCCc3ccccc3Cl)c21 |  | inconclusive [inhibitor, single point]
COc1ccc(CNC(=O)c2sc(=O)n(Cc3cc(Cl)ccc3OC)c2C)cc1 |  | active: 16.4 µM
CCc1nc2ccc(C(=O)NCc3ccccc3)cc2nc1CC |  | inconclusive [inhibitor, single point]
COc1ccc(C(=O)NC2CCCc3ccccc32)cc1Br (configuration not stated) |  | inconclusive [inhibitor, single point]
COCc1cc(N2CCCCC2)nc(-c2ccccc2)n1 |  | active: 18.4 µM
CC(C)N(Cc1nc(-c2ccc(Cl)cc2)no1)C(=O)C12CC3CC(CC(C3)C1)C2 |  | inconclusive [inhibitor, single point]
CCNC(=S)N/N=C(\C)c1cccc(OC)c1 | inactive: 11.3% | 
O=C(C(=Cc1ccccc1)CN1CCCCC1)c1ccccc1 |  | active: 1.46 µM
N#Cc1ccc(CN2CCCC3(CCN(C(=O)c4csnn4)CC3)C2)cc1 |  | inconclusive [inhibitor, single point]
CCCN(CCC)S(=O)(=O)c1ccc2c(c1)CCCN2C(C)=O |  | inconclusive [inhibitor, partial curve]

Reference: PubChem BioAssay AID686978 (National Center for Advancing Translational Sciences (NCATS), 2013)
